This note sets out measurements from PubChem BioAssay AID1745853 (National Center for Advancing Translational Sciences (NCATS), 2022).

Common to all, as to experiment: Primary Screen for Target Class Profiling of Small Molecule Inhibitors of Methyltransferases
In experiment [1] the target is Glycine N-methyltransferase (Homo sapiens) (UniProt Q14749). To be noted: purified enzyme, MTase-Glo SAH luminescence; measured here: GNMT inhibition; at 40 µM; stronger effect = lower value. From the text: (§1) PI: Matthew D. Hall Ph.D. and Quinlin M. Hanson Ph.D.
(§2) National Center for Advancing Translational Sciences (NCATS)
(§3) National Institute of Health (NIH), Rockville, MD
(§4) Target class profiling (TCP) is a chemical biology approach amenable to investigating understudied biological targets. TCP is achieved by developing a generalizable assay platform and applying it to screen a curated set of compound libraries against representative members of a target class. Small molecule methyltransferases (SMMTase) are a subclass of methyltransferase that act on metabolites to modulate signaling pathways, metabolize xenobiotics, or balance the available methyl pool. We screened four curated libraries totaling 27,574 unique compounds against the SMMTases nicotinamide N-methyltransferase (NNMT), phenylethanolamine N-methyltransferase (PNMT), histamine N-methyltransferase (HNMT), glycine N-methyltransferase (GNMT), catechol O-methyltransferase (COMT), and guanidinoacetate N-methyltransferase (GAMT). The data generated by this TCP can be leveraged for informed tool molecule development. For example, in the associated publication we identified a chemotype of HNMT-selective inhibitors. Additionally, we identified a putative SMMTase-selective inhibitor with potential as a tool molecule for studying broader methyltransferase biology.
(§5) High-through put screening assays were developed at the National Center for Advancing Translational Science (NCATS) for the enzymes NNMT, PNMT, HNMT, GNMT, COMT, and GAMT. Enzymatic activity was measured as a function of SAM cofactor conversion using the MTase Glo kit (Promega) for all enzymes. All assays were performed in 1536-well format with substrates and SAM concentrations at KM values. Enzyme concentration and assay timing were optimized for 10-20% SAM conversion. Initial screening of 27,574 compounds was done as single-point assays using the highest compound concentration (40 uM). […] These compounds were replated in 11-point dose response and assayed against NNMT, PNMT, HNMT, GNMT, COMT, GAMT, and a counter-assay. The IC50 and efficacy (maximal response) values were determined for each dose-response curve. These values are also accounted for in the area under the curve (AUC) values.
(§6) PROTOCOL TABLE (as described by Inglese J, Shamu CE and Guy RK. 2007)
(§7) SEQUENCE No. (e.g., 1, 2, 3, etc.); […] (e.g., Cells, Incubation, Reagent, etc.); VALUE; DESCRIPTION.
(§8) 1; Reagent; 2 uL; SMMTase Enzyme (2x) in reaction buffer, columns 1- 48.
(§9) 2; Reagent; 1 uL; SAM (4x) in reaction buffer, columns 1-48.
(§10) 3; Controls; 23 nL; DMSO in column 4; sinefungin in DMSO (0 uM - 40 uM) in 7-point 1:2 dilution series (n = 2) in column 2.
(§11) 4; Compounds; 23 nL; Columns 5-48.
(§12) 5; Reagent; 1 uL; Substrate (4x) in reaction buffer, columns 2-48.
(§13) 6; Time; 20-30 min; Incubation.
(§14) 7; Reagent; 1 uL; MTase-Glo reagent (5X), columns 1-48.
(§15) 8; Time; 30 min; Incubation.
(§16) 9; Reagent; 5 uL; MTase-Glo Detection reagent, columns 1-48.
(§17) 10; Time; 30 min; Incubation, luminescence evolution.
(§18) 11; Detection; Luminescence; ViewLux uHTS Microplate Imager (PerkinElmer).
(§19) NOTES (numbers refer to Sequence numbers above)
(§20) 1, 2, 5. White Medium Binding Greiner 1536-well plates (Cat #789175-F, Greiner Bio-One, Monroe, NC); Reaction buffer: 50 mM Tris, pH 8.0, 3 mM MgCl2, 1 mM EDTA, 50 mM NaCl, 1 mM DTT, and 0.1 mg/mL BSA. Evaporation was prevented by covering assay plates with metal lids containing holes to allow gas diffusion.
(§21) 1. Six SMMTase were profiled: HNMT, GNMT, PNMT, COMT, NNMT, GAMT
(§22) 5. The corresponding substrate was used for each enzyme: HNMT - 5.3 uM Histamine; GNMT - >500 uM Glycine; PNMT - 16.2 uM Norephinephrine; COMT - 13.7 uM Norephinephrine; NNMT - 3.8 uM Nicotinamide; GAMT - 2.5 uM Guanidinoacetate.6, 8, 10. Room temperature
(§23) 6. Final reaction conditions: 10 nM COMT, 5 uM SAM, 15 uM norepinephrine, 50 mM Tris, pH 8.0, 3 mM MgCl2, 1 mM EDTA, 50 mM NaCl, 1 mM DTT, and 0.1 mg/mL BSA; refer to tables 2 and S1 for specific timing.
8. […]

The target of experiment [2] is Guanidinoacetate N-methyltransferase (Homo sapiens) (UniProt Q14353). To be noted: purified enzyme, MTase-Glo SAH luminescence; measured here: GAMT inhibition; at 40 µM; stronger effect = lower value.
Source text: as §1, §2, §3, §4, §5, §6, §7, §8, §9, §10, §11, §12, §13, §14, §15, §16, §17, §18, §19, §20, §21, §22, §23
8. […]

The target in experiment [3] is Histamine N-methyltransferase (Homo sapiens) (UniProt P50135). To be noted: purified enzyme, MTase-Glo SAH luminescence; measured here: HNMT inhibition; at 40 µM; stronger effect = lower value.
Source text: as §1, §2, §3, §4, §5, §6, §7, §8, §9, §10, §11, §12, §13, §14, §15, §16, §17, §18, §19, §20, §21, §22, §23
8. […]

Experiment [4] deals with Nicotinamide N-methyltransferase (Homo sapiens) (UniProt P40261). To be noted: purified enzyme, MTase-Glo SAH luminescence; measured here: NNMT inhibition; at 40 µM; stronger effect = lower value.
Source text: as §1, §2, §3, §4, §5, §6, §7, §8, §9, §10, §11, §12, §13, §14, §15, §16, §17, §18, §19, §20, §21, §22, §23
8. […]

In experiment [5] the target is Phenylethanolamine N-methyltransferase (Homo sapiens) (UniProt P11086). The conditions noted are these: purified enzyme, MTase-Glo SAH luminescence; measured here: PNMT inhibition; at 40 µM; stronger effect = lower value.
Source text: as §1, §2, §3, §4, §5, §6, §7, §8, §9, §10, §11, §12, §13, §14, §15, §16, §17, §18, §19, §20, §21, §22, §23
8. […]

Some of the results follow. The main result of the screen is listed elsewhere. These columns were measured beside it and carry no call.
On the % scale 0 is the no-effect control and ±100 the full control effect.

With `COc1ccc(C(=O)NC[C@H]2Cn3ccnc3CO2)cc1`, the activity change, negative = inhibition in experiment [1] is -1.92%; in experiment [2], -3.99%; in experiment [3], -2.88%; in experiment [4], -3.41%; in experiment [5], 5.33%.
For `CC1(C(=O)NCc2ccccc2)Cn2cnc(C(=O)N3CCc4ccccc43)c2C(=O)N1C1CC1` (stereo not given), in that order: -0.365%, 0%, 0.947%, 9.08% and 5.88%.
For `COc1ccc(-c2cc3n(n2)CC(C)(C(=O)NCc2ccccc2)N(CCc2ccco2)C3=O)cc1` (stereo not given), in that order: 8.28%, 0.726%, 7.69%, 10% and 2.95%.
For `CC1=C2CC(=O)C(C)CC/C=C(\C)CC2(O)OC1=O` (stereo not given), in that order: 3.49%, 4.93%, 7.86%, -8.47% and 0.445%.
`CCCN1C(=O)c2cc(C(=O)NCc3ccc(OC)cc3)nn2CC1(C)C(=O)NC1CCCC1` (stereo not given): the activity change, negative = inhibition in experiment [1] came to 1.95%; in experiment [2] it was 0%; in experiment [3], 2.68%; in experiment [4] it was 4.67%; in experiment [5], 0.117%.
For `CCN1CCN(Cc2ccc(NC(=O)Nc3ccc(Oc4cc(NC)ncn4)cc3)cc2C(F)(F)F)CC1`, in that order: 1.05%, 4.1%, -76.8%, -17.1% and -8.43%.
For `CNCCc1cnc(CCC(c2ccccc2)c2ccccc2)[nH]1`, in that order: -24.2%, 12.6%, -25.6%, -17.7% and 12.5%.
Consider `CN(C)Cc1nnc(C2CC(NC(=O)c3cc(-c4cccn4C)n[nH]3)C2)n1C` (stereo not given), for which the activity change, negative = inhibition is -7.7% in experiment [1]; -5.1% in experiment [2]; -0.867% in experiment [3]; -10.3% in experiment [4]; -4.21% in experiment [5].
For `CCn1c(CO)nnc1C1CC(NC(=O)c2ccc3nc(C)oc3c2)C1` (stereo not given), in that order: -2.81%, -5.83%, -1.45%, -6.8% and -3.1%.
Turning to `COc1ccc(-c2cc(C(=O)NCC3CC3)c3c(C4CCCN4)noc3n2)cc1` (stereo not given), the activity change, negative = inhibition is -8.44% in experiment [1]; -9.9% in experiment [2]; -17.9% in experiment [3]; -20.7% in experiment [4]; -11.5% in experiment [5].
Take `COc1cccc(CNc2nc3c(S(=O)(=O)c4ccccc4)nnn3c3ccccc23)c1`: the activity change, negative = inhibition in experiment [1] was 2.54%; in experiment [2], 0.072%; in experiment [3], 8.44%; in experiment [4], -8.82%; in experiment [5] it was 2.66%.
For `CCN1C(=O)c2cc(C(=O)NCc3ccccc3F)nn2CC1(C)C(=O)NC1CCCC1` (stereo not given), in that order: 8.69%, 0.33%, 0.068%, 11.3% and 7.74%.
For `Cc1n[nH]c(C)c1C(N)C(=O)NCc1ccccc1-n1ccnc1C` (stereo not given), in that order: -1.32%, -6.83%, -12%, -3.38% and 1.31%.
For `Cc1cc(C(=O)N2CCC(OCC3CC3)C2)n(C)n1` (stereo not given), in that order: -0.358%, 1.85%, 2.11%, -1.31% and -0.458%.
Regarding `CN(CC1(C)CCOCC1)C(=O)c1ccccn1`, the activity change, negative = inhibition in experiment [1] is -3.75%; in experiment [2], -5.25%; in experiment [3], -3.01%; in experiment [4] it was -10.9%; in experiment [5], -6.09%.
For `CC(=O)N1CCC(CC(=O)N2C[C@@H](Oc3ccccc3)C[C@H]2C(=O)N2CCOCC2)CC1`, in that order: -1.15%, -2.41%, 1.75%, -2.43% and -9.29%.
For `CCCCc1oc2ccc(NS(C)(=O)=O)cc2c1C(=O)c1ccc(OCCCN(CCCC)CCCC)cc1`, in that order: 1.1%, 6.39%, -4.7%, -17% and 1.57%.
For `CCN1C(=O)c2cc3ccccc3n2CC1(C)C(=O)NCC(=O)NCc1ccc(F)cc1` (stereo not given), in that order: -3.79%, 0%, 2.15%, -1.65% and 0.188%.
`CC(=O)N[C@H](C(=O)O)C(C)(C)SN=O`: the activity change, negative = inhibition in experiment [1] is -0.641%; in experiment [2] it was 5.42%; in experiment [3], -0.381%; in experiment [4], -2.58%; in experiment [5], 4.65%.
For `Cc1cc2c(cc3n2CC(C)(C(=O)NC2CCCCCC2)N(CCN(CC(C)C)CC(C)C)C3=O)o1` (stereo not given), in that order: -8.15%, 2.9%, -5.79%, -6.5% and -11.3%.
Turning to `Cc1cc(C(=O)NC2CC(c3cc(=O)[nH]cn3)C2)cc(S(N)(=O)=O)c1C` (stereo not given), the activity change, negative = inhibition in experiment [1] was -6.39%; in experiment [2] it was -4.09%; in experiment [3], -0.603%; in experiment [4] it was -8.48%; in experiment [5], -3.83%.
For `C=C1[C@@H](C2=CC(=O)OC2)CC[C@@]2(O)[C@@H]1CC1[C@H]2CC[C@@H]2C[C@@H](O[C@H]3O[C@@H](C)[C@@H](O[C@@H]4O[C@H](CO[C@@H]5O[C@H](CO)[C@@H](O)[C@H](O)[C@H]5O)[C@@H](O)[C@H](O)[C@H]4O)[C@H](OC)[C@H]3O)CC[C@]12C` (stereo not given in full), in that order: 4.88%, 2.55%, 7.27%, -8.07% and 0.819%.
For `CCCn1c(=O)c2ccc(C(=O)NC(C)C)cc2n2c(SCc3cccc(F)c3)nnc12`, in that order: 0.493%, 3.07%, -0.733%, 0.072% and -3.1%.
For `OC[C@@H]1CNC[C@H]1c1nc(C2CC2)no1`, in that order: -4.54%, -3.56%, -1.06%, -7.68% and -11.3%.
Take `COC(=O)c1ncn2c1C(=O)N(Cc1ccccc1Cl)C(C)(C(=O)NCc1ccccc1)C2` (stereo not given): the activity change, negative = inhibition in experiment [1] was -1.4%; in experiment [2], 0%; in experiment [3] it was 4.32%; in experiment [4], 5.2%; in experiment [5], 1.81%.
For `CCC1(c2ccccc2)C(=O)NCNC1=O`, in that order: -3.64%, -0.776%, -0.481%, -10.3% and -3.76%.
For `CC(C)CNC(=O)c1ccc2c(=O)n(C)c3nn(Cc4cccc(F)c4)c(=O)n3c2c1`, in that order: 1.4%, 0.36%, 6.6%, 2.91% and 4.95%.
Take `Cc1ccc(Nc2cc(-c3cccc(N4C(=O)c5ccccc5C4=O)c3)ncn2)cc1NS(C)(=O)=O`: the activity change, negative = inhibition in experiment [1] is -8.84%; in experiment [2], -10.2%; in experiment [3], -0.81%; in experiment [4], -32.6%; in experiment [5], -25.3%.
For `COc1cccc(N2C(=O)CSc3c(c4ccccc4n3C)C2C(=O)NCc2ccc(F)cc2)c1` (stereo not given), in that order: -1.68%, 0%, 5.63%, 0.751% and 1.65%.
